From the supplement of paper PMC9446081 come the findings set out here.

SMILES strings stand for the structures. In all, about 39,000 compounds went through this assay and about 220 (0.56%) showed activity. Some of the results follow.
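Note: static incubation at 37 °C against the wild-type strain, values averaged over two biological replicates.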

In this assay the test system is Escherichia coli K-12 BW25113. Nature of the assay: relative growth (OD600 normalised to plate interquartile mean) (fraction); higher = less growth inhibition, active = 0.2 or less. To be noted: 50 µM; LB; incubation time: overnight (16-24 h).
Turning to `CN(C)CCCNC(=O)C[C@H]1CC[C@H]2[C@@H](COc3ccc(NC(=O)NC4CCCC4)cc3C(=O)N2C)O1`, the relative growth was inactive: 1.01. The same measure for `Cc1ccccc1S(=O)(=O)N1C[C@@H](O)COC[C@@H]2O[C@H](CC(=O)NCCc3ccccc3)CC[C@H]21`: inactive: 0.989; for `CN(C)Cc1cn(CC[C@@H]2CC[C@@H](NS(=O)(=O)c3ccccc3)[C@@H](CO)O2)nn1`: inactive: 1.01. For `C[C@@H]1CN([C@@H](C)CO)C(=O)Cc2cc(NC(=O)Nc3ccc(C(F)(F)F)cc3)ccc2O[C@H]1CN(C)Cc1ccncc1`, the relative growth was inactive: 1.

Consider `C[C@@H]1CN([C@@H](C)CO)C(=O)Cc2cc(NC(=O)C3CCCCC3)ccc2O[C@@H]1CN(C)Cc1ccc(C(=O)Nc2ccccc2N)cc1`, for which the relative growth is inactive: 1.

For `O=C1O[C@@H](c2ccccc2)[C@@H](c2ccccc2)N2[C@@H](c3ccccc3OCCO)[C@]3(C(=O)Nc4ccc(C#CC5(O)CCCCCC5)cc43)[C@@H](C(=O)O)[C@H]12`, the relative growth was inactive: 0.945. The same measure for `COCC(=O)Nc1ccc2c(c1)OC[C@H](C)N(C(=O)Cc1ccccn1)C[C@H](C)[C@@H](OC)CN(C)C2=O`: inactive: 0.98; for `C[C@@H]1CN([C@@H](C)CO)C(=O)CCCn2cc(nn2)CO[C@@H]1CN(C)C(=O)Nc1ccc2c(c1)OCO2`: inactive: 1.01; for `N#C[C@H](NCCO)c1ccc(F)cc1`: inactive: 1.03. The figure for `C[C@H](CO)N1C[C@H](C)[C@@H](CN(C)Cc2cncnc2)Oc2cc(C3=CCCCC3)ccc2S1(=O)=O` is inactive: 1.04; for `C[C@@H]1CN([C@H](C)CO)C(=O)c2cc(NC(=O)c3ccncc3)ccc2O[C@@H](C)CCCCO[C@H]1CN(C)C(=O)Nc1ccccc1` it is inactive: 0.996. For the molecule `CN(C)CCN(Cc1ccc(Cl)cc1)c1ccccn1.Cl`, the relative growth is inactive: 1.

As for `C[C@@H]1CCCCO[C@@H](CN(C)Cc2ccc(C(=O)O)cc2)[C@@H](C)CN([C@@H](C)CO)C(=O)c2cc(NC(=O)Nc3ccccc3)ccc2O1`, the relative growth was inactive: 0.995. The figure for `COc1cccc(S(=O)(=O)Nc2ccc3c(c2)[C@H]2C[C@H](CC(=O)NCc4ccccc4F)O[C@@H](CO)[C@H]2O3)c1` is inactive: 1.01; for `C[C@H]1CN([C@@H](C)CO)C(=O)c2cc(NC(=O)Cc3cn(C)c4ccccc34)ccc2O[C@H]1CN(C)S(C)(=O)=O` it is inactive: 0.997; for `CCCCCCCCCCCCCCCC(=O)OC(C)C` it is inactive: 1.04. The same measure for `NC[C@@H](O)c1ccsc1`: inactive: 1.02. The figure for `COc1ccc(NC(=O)Nc2cccc3c2O[C@H](CN(C)S(C)(=O)=O)[C@@H](C)CN([C@@H](C)CO)C3=O)cc1` is inactive: 0.992.

Regarding `C[C@@H]1CN([C@H](C)CO)C(=O)c2cccc(NC(=O)C3CCOCC3)c2O[C@H]1CN(C)Cc1ccc2c(c1)OCO2`, the relative growth was inactive: 1.01.

`CN1CCN(C(=O)C[C@H]2CC[C@H]3[C@@H](COC[C@@H](O)CN3S(=O)(=O)c3cccc(Cl)c3)O2)CC1`: the relative growth was inactive: 1.01. The figure for `COc1ccc(NC(=O)N(C)C[C@@H]2OCCCC[C@H](C)Oc3ccc(NS(=O)(=O)c4ccc(Cl)cc4)cc3C(=O)N([C@@H](C)CO)C[C@@H]2C)cc1` is inactive: 1.03; for `C[C@@H]1CCCCO[C@@H](CN(C)Cc2ccc(C(=O)O)cc2)[C@@H](C)CN([C@@H](C)CO)C(=O)c2cc(NC(=O)Nc3ccc(F)cc3)ccc2O1` it is inactive: 0.851. The same measure for `CC(C)CC#Cc1ccc2c(c1)O[C@@H](CN(C)C(=O)NC1CCCC1)[C@H](C)CN([C@H](C)CO)S2(=O)=O`: inactive: 1.01. The same measure for `CO[C@H]1CN(C)C(=O)c2cc(NS(=O)(=O)CC(F)(F)F)ccc2OC[C@H](C)N(Cc2nccs2)C[C@H]1C`: inactive: 0.992; for `C[C@H](CO)N1C[C@H](C)[C@@H](CN(C)C(=O)Cc2cccnc2)Oc2ncc(C#CCc3ccccc3)cc2C1=O`: inactive: 0.999. Take `C[C@@H]1CN([C@H](C)CO)C(=O)c2cc(NS(=O)(=O)c3cn(C)cn3)ccc2O[C@H]1CN(C)C(=O)NC1CCCCC1`: the relative growth is inactive: 1.02. Turning to `Cc1ccc(S[C@]2(C(=O)NCCCN(C)C)CC(=O)N(C3CCCCC3)[C@@H]2c2ccc(CO)cc2I)cc1`, the relative growth was inactive: 1.01. The figure for `CN1CCN(C(=O)C[C@@H]2C=C[C@@H](NC(=O)Nc3ccccc3F)[C@H](CO)O2)CC1` is inactive: 1.02. The same measure for `N/C(=N/O)c1cnc2n(c1=O)CCS2`: inactive: 0.994; for `N[C@@H]1c2ccccc2C[C@@H]1O`: inactive: 0.995. For the molecule `C[C@H]1CN([C@@H](C)CO)C(=O)c2cccc(NS(=O)(=O)c3ccc(F)cc3)c2O[C@@H]1CN(C)Cc1ccc(-c2ccccc2)cc1`, the relative growth was inactive: 0.991.

For the molecule `Cc1noc(C)c1S(=O)(=O)Nc1ccc2c(c1)C(=O)N([C@H](C)CO)C[C@@H](C)[C@H](CN(C)Cc1ccc3c(c1)OCO3)O2`, the relative growth is inactive: 0.968. The figure for `COC(=O)/C=C1\N[C@H]2CCCC[C@@H]2NC1=O` is inactive: 1.04. Take `C[C@@H]1CCCCO[C@@H](CN(C)Cc2ccc3c(c2)OCO3)[C@H](C)CN([C@@H](C)CO)C(=O)c2cc(NC(=O)Nc3ccc(C(F)(F)F)cc3)ccc2O1`: the relative growth was inactive: 0.99. The same measure for `Cc1noc(C)c1NC(=O)Nc1ccc2c(c1)C(=O)N([C@H](C)CO)C[C@H](C)[C@H](CN(C)C(=O)C1CCCCC1)OCCCC[C@@H](C)O2`: inactive: 0.989.

Consider `NNCCc1ccccc1`, for which the relative growth was inactive: 0.818. With `CCN(CC)C(=O)C1CCNCC1`, the relative growth was inactive: 0.977. The same measure for `Nc1ccc(NC(=O)CCN2CCOCC2)cc1`: inactive: 1.01. The figure for `C[C@H]1CCCCO[C@@H](CN(C)Cc2ccncc2)[C@@H](C)CN([C@@H](C)CO)C(=O)c2cc(NC(=O)CCC(F)(F)F)ccc2O1` is inactive: 0.986. The figure for `COc1ccc(NC(=O)N(C)C[C@@H]2OCCCC[C@@H](C)Oc3ccc(NC(=O)Nc4ccc5c(c4)OCO5)cc3C(=O)N([C@@H](C)CO)C[C@H]2C)cc1` is inactive: 0.997; for `C[C@H](CO)N1C[C@H](C)[C@@H](CN(C)C(=O)Nc2ccc(F)cc2)OCCCC[C@H](C)Oc2ccc(NC(=O)Cc3ccccc3)cc2C1=O` it is inactive: 1.03.
